# In the RNAGym collection of RNA variant scans (doi:10.1073/pnas.2313332121):
# Variants at the floor of the assay are shown more often than the library holds them.
# B1: TPR 5TU (parent)
# chain: GGAUCUUCUCGAUCUAACAAAAAAGACAAAUCUGCCACAAAGCUUGAGAGCAUCUUCGGAUGCAGAGGCGGCAGCCUUCGGUGGCGCGAUAGCGCCAACGUUCUCAACUAUGACACGCAAAACGCGUGCUCCGUUGAAUGGAGUUUAUCAUG
# Variants of: B1
# Experiment: polymerase ribozyme fitness, log enrichment relative to wild type (log ratio); higher = more active; in vitro selection for triplet polymerase activity
# In short: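 A single round of triplicate in vitro selection, including frozen incubation at −7 °C, was applied to PCR-built, transcribed mutant libraries of each subunit of a heterodimeric triplet polymerase ribozyme. Illumina sequencing of input and output libraries retained genotypes with ≥10 input reads and ≥1 read per output. Fitness is the base-2 logarithm of genotype enrichment divided by wild-type enrichment, from inverse-variance-weighted replicate averages.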
row,Variant,polymerase ribozyme fitness (log ratio)
1,A23C U45G G94U C103G U148G,≤ -4.2
2,A23U A47U C57A G83A C96A,≤ -4.2
3,A23C C36U A64C U144G,≤ -4.2
4,A23G U55A G62C G68U C96U A121U,≤ -4.2
5,A22U C35U U55A G59A G65A C85U C105A,≤ -4.2
6,A22U A47U G59U G86U A91U A113U G143C A150G,≤ -4.2
7,A22U A40C G65A,-3.81
8,A22U A29U A40G U56A C57U C95A G126C G133A U139C G152A,≤ -4.2
9,A22U G25A C51U G94A,≤ -4.2
10,A22U G83C G84A U101A C123A,-4.08
11,A22U C51G G84A C114U U130A G141A,≤ -4.2
12,A23C A40U U77A C87G C96U C131U,≤ -4.2
13,A23U C43U G59A G88A G94U U134A,≤ -4.2
14,A23C A29U G46C C96U U135C U151C,≤ -4.2
15,A23U G34C U145C U146C,≤ -4.2
16,A23U A28U U44A C85G G117A,≤ -4.2
17,A23G C27A A37C G81A C87G U101C U134C,≤ -4.2
18,A23C C32U U61A C76A C85G C116A A121U U144A,≤ -4.2
19,A22U G34U U53A U55A C85U A98G,≤ -4.2
20,A22U C32G A41U G59A A107C U127C,≤ -4.2
21,A22U G80A,0.375

row,Variant,polymerase ribozyme fitness (log ratio)
1,A23U C36U U53C U90G C114G,≤ -4.2
2,A22U A29G C35G U44G C57U C114A,≤ -4.2
3,A23C A29C A97G G141C,≤ -4.2
4,A23C A49U A64C C96A U144A,≤ -4.2
5,A22U U31C C35U U90G A106C,≤ -4.2
6,A23G A49U C87A C108U C132U,≤ -4.2
7,A22U A37C G88C G92U G140C,≤ -4.2
8,A23U A29C C85G A110G G112U,≤ -4.2
9,A23C A39G G58A G65A C132A G136C U148G,≤ -4.2
10,A23G U44G U53G A91C C95U C103A G117A A121C G126A,≤ -4.2
11,A23G C87A U104A U127A G136A,≤ -4.2
12,A23C C57G G58A A64C C72G G80A G86A U145G A150C,≤ -4.2
13,A22U G25A G84U A89G,≤ -4.2
14,A22U C35U A41U G74U G80A C85U A110U G141U,≤ -4.2
15,A23G A28C A115U U134A,≤ -4.2
16,A23G C51U C69U A97U U101G A107U,≤ -4.2
17,A22U G65A G71A C93U G141A,≤ -4.2
18,A23U G25A A37U G46A A47C C95G A138G,≤ -4.2
19,A23C U33G A37C G70C A98U A120U G126A U144C,≤ -4.2
20,A22U U53A G88A C116G A142G A150C,≤ -4.2
21,A23G C35G C51A C85U A106U A113C A121C,≤ -4.2

row,Variant,polymerase ribozyme fitness (log ratio)
1,A23G G100A,≤ -4.2
2,A23U A47C U55G G86U U90C,≤ -4.2
3,A22U C85G C125U G140A,≤ -4.2
4,A23G A49C C79G G84A C87U A98U A137C U146C,≤ -4.2
5,A23U A28C U44A U78G C87G G141U,≤ -4.2
6,A23U A60G G81A G83U,≤ -4.2
7,A23U C57A G92C C149G,≤ -4.2
8,A23U C54A C79U C85G C95U G117U C123A,≤ -4.2
9,A23C A26C,≤ -4.2
10,A23C A30U G58C G59C G84A A119G U148A,≤ -4.2
11,A23C A26U U53A C85A G136U,≤ -4.2
12,A23G G68U C93G A142G,≤ -4.2
13,A23G U33G U56C G71U G117U A119C U144G U146C,≤ -4.2
14,A23U A28C A60C U61G G67A C87G C96A,≤ -4.2
15,A22U G140A,-2.83
16,A23C A40U C95U U134A U151A,≤ -4.2
17,A23C G50C U101G A147U,≤ -4.2
18,A23U C87U A120G,≤ -4.2
19,A23U A37C A41C C105U,≤ -4.2
20,A23C C32U U56G C123U A142U U144G,≤ -4.2
21,A23U A24C A41C A49G C87A C108G,≤ -4.2

row,Variant,polymerase ribozyme fitness (log ratio)
1,A23U A29U C85A A115G G143C,≤ -4.2
2,A22U A52U U78A C85U U127A A137C,≤ -4.2
3,A22U C38U G67A C75U C85G G100U U101G A120C G124C,≤ -4.2
4,A22U U77G C85G G92U,≤ -4.2
5,A23U C76A C118G A142C C149U,≤ -4.2
6,A23C G83A C116A G152A,≤ -4.2
7,A23C C76G C103G C125A C132G,≤ -4.2
8,A23G A47C,-2.96
9,A23G G83A C114U C149G,≤ -4.2
10,A22U C76U,0.515
11,A23G U33G G42C C87G A120G G126U,≤ -4.2
12,A22U G67A,≤ -4.2
13,A23G C85U,-2.38
14,A23U C54G U61C G84U C87U G88A A119U,≤ -4.2
15,A23U A47G U90A C95U A115C G140A C149G,≤ -4.2
16,A22U A39U G68A U77A G80U C96G,≤ -4.2
17,A23C A28G A37U G68C C72A G86A C87A,≤ -4.2
18,A22U G71A,-2.64
19,A22U U31A A66G C95A A97U A113U C123A,≤ -4.2
20,A22U C27A C85G G100A,≤ -4.2
21,A23C A24U C87A C93G C95A G143C,≤ -4.2
